# Data from article PMC4336329 (PLoS ONE, 2015).
# Among all 310,000 compounds or so, about 2,200 (0.71%) showed an effect of 50% or more. Effects have a minus sign here. This is one part of the list.
# Biological target: human ether-à-go-go-related gene (hERG) potassium channel (human, UniProt Q12809)
# Experiment: primary screen, population patch clamp on CHO cells stably expressing hERG
# Chain of human ether-à-go-go-related gene (hERG) potassium channel (Q12809 whole entry, looked up): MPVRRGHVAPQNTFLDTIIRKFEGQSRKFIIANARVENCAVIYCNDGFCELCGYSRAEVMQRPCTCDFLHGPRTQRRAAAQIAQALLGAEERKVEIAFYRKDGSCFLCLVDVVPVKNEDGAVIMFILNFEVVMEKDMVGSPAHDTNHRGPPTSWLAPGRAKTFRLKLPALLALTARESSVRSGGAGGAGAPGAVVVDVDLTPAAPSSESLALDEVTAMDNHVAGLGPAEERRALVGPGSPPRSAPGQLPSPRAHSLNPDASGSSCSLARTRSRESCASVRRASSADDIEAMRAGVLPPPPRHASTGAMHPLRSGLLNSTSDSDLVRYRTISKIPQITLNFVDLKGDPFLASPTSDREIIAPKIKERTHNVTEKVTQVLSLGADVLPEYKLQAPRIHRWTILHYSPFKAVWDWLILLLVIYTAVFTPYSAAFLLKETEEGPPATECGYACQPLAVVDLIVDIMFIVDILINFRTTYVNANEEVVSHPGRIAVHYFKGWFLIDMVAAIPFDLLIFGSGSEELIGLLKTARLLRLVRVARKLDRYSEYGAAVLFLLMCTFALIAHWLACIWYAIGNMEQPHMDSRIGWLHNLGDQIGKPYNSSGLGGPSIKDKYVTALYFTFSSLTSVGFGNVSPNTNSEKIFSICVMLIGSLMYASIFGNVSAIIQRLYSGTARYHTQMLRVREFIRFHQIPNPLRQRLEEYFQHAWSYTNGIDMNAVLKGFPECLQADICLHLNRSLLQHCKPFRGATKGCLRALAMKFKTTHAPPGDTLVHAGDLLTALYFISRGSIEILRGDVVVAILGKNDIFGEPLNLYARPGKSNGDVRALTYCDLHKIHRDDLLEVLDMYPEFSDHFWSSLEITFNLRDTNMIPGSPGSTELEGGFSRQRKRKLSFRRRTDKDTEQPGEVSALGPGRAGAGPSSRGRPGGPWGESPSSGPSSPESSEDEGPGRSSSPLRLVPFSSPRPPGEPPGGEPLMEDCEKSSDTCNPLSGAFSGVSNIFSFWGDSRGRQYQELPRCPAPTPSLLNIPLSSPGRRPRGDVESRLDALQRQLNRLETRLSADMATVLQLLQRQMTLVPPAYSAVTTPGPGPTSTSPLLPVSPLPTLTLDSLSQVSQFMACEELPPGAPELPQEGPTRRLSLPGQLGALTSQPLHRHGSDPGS
row,SMILES,"hERG current change (%, negative = inhibition) at 1uM [%]"
1,CC(=O)N1N=C(c2ccco2)CC1c1ccc(Br)cc1 (centres unmarked),6.07
2,CN(C(=O)CNC(=O)c1ccc(Br)o1)C1CCCCC1,18.9
3,CCN(CC)C(=O)CSc1nnc(-c2cnccn2)n1-c1ccccc1,6.53
4,CN(C)c1ccc(C(=O)Nc2ccc(S(=O)(=O)Nc3nccs3)cc2)cc1,18.9
5,Cc1ccc(/C=C/S(=O)(=O)NCC(=O)OCC(=O)Nc2ccc(C(=O)N(C)C)cc2)cc1,12.7
6,COc1cccc(C(=O)Nn2cnnc2)c1OC,12.9
7,CCS(=O)(=O)N1CCN(C(=O)c2cccc3ccccc23)CC1,11.2
8,CCCCCCC(c1c(C)n(C)n(-c2ccccc2)c1=O)c1c(C)n(C)n(-c2ccccc2)c1=O,1.2
9,Cc1cnc(C(=O)OCC(=O)N2CCN(C(=O)c3ccco3)CC2)cn1,-5.27
10,Cc1cc(C)cc(N2C(=O)CC(Sc3nnnn3-c3ccccc3)C2=O)c1 (centres unmarked),5.47
11,O=C(Nc1ccncc1)C1CC1c1ccccc1 (centres unmarked),9.19
12,CC(C)COc1ccc(C(=O)Nc2ccc(SC(F)F)cc2)cc1,9.66
13,O=C(Nc1ccc(F)c(Cl)c1)C1CCCN(C2=NS(=O)(=O)c3ccccc32)C1 (centres unmarked),-10.4
14,Cc1cc(C)c2oc(-c3ccc(C)c(NC(=S)NC(=O)c4cccs4)c3)nc2c1,8.53
15,Clc1ccc(OCc2nn3c(-c4ccco4)nnc3s2)cc1,-8.42
16,O=C(CN(C(=O)CCNC(=O)c1ccco1)c1ccccc1)NC1CCCC1,12
17,N#CC1(NC(=O)CSc2nncn2-c2ccccc2F)CCCC1,6.77
18,Cc1cc(C)nc(NC(=O)c2cccc([N+](=O)[O-])c2)c1,5.03
19,Cc1nc2ccccc2nc(C)c1=NOCC(=O)N(c1ccccc1)C(C)C,1.71

row,SMILES,"hERG current change (%, negative = inhibition) at 1uM [%]"
1,CC1CC(C)CN(CCCNC(=O)CCC(=O)N2CC(C)Oc3ccccc32)C1 (centres unmarked),-5.09
2,CN1CCN(CCC(C#N)(c2ccccc2)c2ccccc2)CC1.Cl,-35.1
3,Cc1cc(NC(=O)c2cc(C)on2)no1,-0.312
4,O=[N+]([O-])c1cccc(CN2C[C@@]34C=C[C@@H](C[C@@H]3S2(=O)=O)O4)c1,1.88
5,COc1ccc(-c2cc([C@H]3[C@H]4C=CC[C@@H](C)[C@@H]4C(=O)N3Cc3ccccc3)ccc2F)cc1OC,5.44
6,CC(C)C[C@@H](N)c1nnc(SCC(=O)c2ccc(Cl)cc2)o1.Cl,-8.91
7,O=C(CCNC(=O)c1ccc(Br)cc1)NCCCN1CCOCC1,15.8
8,Cc1ccc([C@@H]2[C@@H]3C(=O)N(c4ccccc4)C(=O)[C@@H]3[C@]3(Cc4ccccc4)C(=O)N(CC4CC4)CC(=O)N23)o1,6.29
9,CCOC(=O)N1CCN(C(=O)c2ccc(NS(=O)(=O)c3ccc(F)cc3)cc2)CC1,5.07
10,Cn1c(=O)c2cc(NCc3ccccc3)nnc2n(C)c1=O,13.3
11,COc1ccc(C(=O)NN/C(C)=C/C(=O)c2ccccc2)cc1,13.3
12,COc1cc2c(cc1OC)C1Cc3ccc(OC)c(OC)c3CN1CC2.Cl (centres unmarked),10.4
13,Cc1ccsc1CN(C)CC(=O)Nc1ccc([N+](=O)[O-])cc1Cl,16.5
14,CC(C)n1nc(CC(=O)O)c2ccccc2c1=O,8.54
15,CCOC(=O)CSc1nc(C(C)(C)C)nc2ccccc12,2.26
16,O=S(=O)(CCN1CCN(c2ccccn2)CC1)c1ccc(F)cc1,2.13
17,CCC1(C)NC(=O)N(CC(=O)Nc2sc3c(c2C(=O)OC)CCCCC3)C1=O (centres unmarked),7.27
18,Cc1ccc(C(=O)OCC(=O)NCc2ccco2)cc1S(=O)(=O)N1CCOCC1,9.87
19,CCC1(C)Cc2ccccc2/C(=C/C(=O)N2CCCCC2)N1.Cl (centres unmarked),8.56

row,SMILES,"hERG current change (%, negative = inhibition) at 1uM [%]"
1,Cn1nc(C(F)(F)F)c(C(=O)Nc2ccc(F)cc2F)c1Sc1ccc(C(F)(F)F)cc1,-8.56
2,Cc1ncsc1CCOC(=O)c1ccc(Cl)cc1,2.92
3,Cc1ccc(C)c(S(=O)(=O)Nc2cc3c4c(c2)CCN4C(=O)CC3)c1,1.74
4,CCCCCC(=O)NNC(=S)NC(C)=O,13.3
5,CCOC(=O)c1c(NC(=O)C(Sc2ccccc2)c2ccccc2)sc(C(N)=O)c1C (centres unmarked),5.28
6,CCCc1ccc(OCc2nc(-c3ccc(NC(=O)c4ccco4)cc3)no2)cc1,4.4
7,COc1ccc(CN2C(=NC(=O)c3ccccc3)SC3CS(=O)(=O)CC32)cc1OC (centres unmarked),4.25
8,CCCCOc1ccc(CNn2c(C)nc3ccccc3c2=O)cc1,15.5
9,C=CCc1c(C)nc(C)nc1N/N=C/c1ccc([N+](=O)[O-])cc1.Cl,-29.9
10,CCOc1ccc(NC(=O)CN(C)C(=O)c2ccc3[nH]c4c(c3c2)CC(C)CC4)cc1OCC (centres unmarked),12
11,CS(=O)(=O)N1CCN=C1SCc1cccc(F)c1,11.9
12,O=C(CSc1nc2ccc([N+](=O)[O-])cc2[nH]1)NC1CCCCC1,6.16
13,CCOC(=O)C1=C(C)N(CCCC(=O)O)C(=O)NC1c1ccccc1Cl (centres unmarked),4.34
14,CCS(=O)(=O)N1Cc2ccccc2CC1C(=O)N(C)CC(=O)Nc1cccc(F)c1 (centres unmarked),6.1
15,Br.CCn1c(O)c(N=NC2=NC(=O)CS2)c2ccccc21,-0.763
16,Cc1sc(NC(=S)NC(=O)c2ccccc2)c(C#N)c1C,5.2
17,CC(=O)c1c([O-])n(-c2cccc(Cl)c2)c(=O)[nH]c1=O.C[NH+](C)C,13
18,CCCCS(=O)(=O)N1CCN(S(=O)(=O)c2ccc(Cl)s2)CC1,2.15
